The text below walks through data of PMC4336329 (PLoS ONE, 2015).

The campaign covered roughly 310,000 compounds. About 14,000 (4.5%) showed an effect of 50% or more. Effects have a minus sign here. This is one part of the list.
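Further: peak tail current of the secondary pulse compared with the same well before compound.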

The test deals with human ether-à-go-go-related gene (hERG) potassium channel (human, UniProt Q12809). Nature of the test: primary screen, population patch clamp on CHO cells stably expressing hERG.
human ether-à-go-go-related gene (hERG) potassium channel, sequence (Q12809 whole entry, looked up): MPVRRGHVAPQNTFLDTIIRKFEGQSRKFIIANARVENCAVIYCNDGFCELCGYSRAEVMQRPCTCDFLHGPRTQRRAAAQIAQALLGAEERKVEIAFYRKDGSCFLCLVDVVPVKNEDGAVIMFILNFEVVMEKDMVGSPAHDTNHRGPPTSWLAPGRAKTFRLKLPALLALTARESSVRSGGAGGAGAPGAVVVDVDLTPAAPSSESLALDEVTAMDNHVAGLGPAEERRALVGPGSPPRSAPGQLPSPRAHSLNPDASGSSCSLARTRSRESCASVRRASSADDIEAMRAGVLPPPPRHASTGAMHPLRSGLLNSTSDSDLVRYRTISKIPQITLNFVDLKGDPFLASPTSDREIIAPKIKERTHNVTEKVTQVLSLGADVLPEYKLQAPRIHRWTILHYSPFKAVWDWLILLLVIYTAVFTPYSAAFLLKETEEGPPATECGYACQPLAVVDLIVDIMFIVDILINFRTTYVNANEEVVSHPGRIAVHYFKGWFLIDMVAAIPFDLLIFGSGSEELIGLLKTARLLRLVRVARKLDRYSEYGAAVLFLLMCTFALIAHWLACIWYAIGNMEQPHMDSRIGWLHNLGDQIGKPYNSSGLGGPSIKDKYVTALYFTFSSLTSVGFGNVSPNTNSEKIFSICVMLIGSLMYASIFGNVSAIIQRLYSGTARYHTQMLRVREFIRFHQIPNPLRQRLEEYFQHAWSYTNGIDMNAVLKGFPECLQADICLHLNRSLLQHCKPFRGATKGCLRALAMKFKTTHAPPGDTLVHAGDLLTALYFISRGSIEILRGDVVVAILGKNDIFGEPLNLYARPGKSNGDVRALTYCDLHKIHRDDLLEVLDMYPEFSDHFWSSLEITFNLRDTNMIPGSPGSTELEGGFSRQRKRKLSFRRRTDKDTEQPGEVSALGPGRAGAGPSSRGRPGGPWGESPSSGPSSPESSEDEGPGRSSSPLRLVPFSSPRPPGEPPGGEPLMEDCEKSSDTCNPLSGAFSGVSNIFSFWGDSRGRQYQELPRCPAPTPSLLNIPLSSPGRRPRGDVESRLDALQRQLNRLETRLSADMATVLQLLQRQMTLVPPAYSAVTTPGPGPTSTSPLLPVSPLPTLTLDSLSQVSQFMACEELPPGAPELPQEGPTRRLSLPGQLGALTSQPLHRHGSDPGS
For `COC(=O)c1ccc(Cl)c(S(=O)(=O)N2CCCC2)c1`, the “hERG current change (%, negative = inhibition) at 10uM” value is 16.8%. The value for `Cc1cc(NC(=O)c2ccc3c(c2)C(=O)N(C2CCCCC2)C3=O)no1` was 8.78%; that for `C[C@]1(C(=O)O)Cc2oncc2C[C@@H]1C(=O)O` was 6.58%; that for `CCOC(=O)c1c(C)nc2ccccn12` was -11.2%. The value for `CC(=O)c1ccccc1OCCn1nc(C(=O)O)c2ccccc2c1=O` was -12.6%; that for `COc1ccc(CN(C)CC(=O)NC(=O)NCc2ccccc2)c(OC)c1` was -19%. Consider `O=C(NCC1CCCO1)c1cccc(NC(=O)c2cccs2)c1` (stereo not shown), for which the “hERG current change (%, negative = inhibition) at 10uM” value is 6.61%. For `Cc1cccc2cc(CN(CC3CCCO3)C(=O)c3cccs3)c(=O)[nH]c12` (stereo not shown), the “hERG current change (%, negative = inhibition) at 10uM” value is 7.38%. For `C=CCOc1ccc(CN(C)C(=O)CN2C(=O)c3ccccc3C2=O)cc1`, the “hERG current change (%, negative = inhibition) at 10uM” value is given as -2.58%. The value for `C[N+]1(C)C2CC(OC(=O)[C@H](CO)c3ccccc3)CC1C1OC12.O=[N+]([O-])[O-]` (stereo partly shown) was 8.04%. The figure for `COc1ccc(CCN2C(=O)NC(NS(=O)(=O)c3ccccc3)(C(F)(F)F)C2=O)cc1OC` (stereo not shown) is -15.5%; for `Br.COC(=O)c1ccc(OCCN2C3=NCCN3c3ccccc32)cc1` it is -68.7%. The value for `Cc1cccc(NC(=O)c2cnn(C)c2)c1C` was 4.72%; that for `O=C(COC(=O)c1ccccc1O)NCCC1=CCCCC1` was 22.1%; that for `CN1CCN(c2nc(-c3ccccc3)ncc2S(C)(=O)=O)CC1` was -48.4%. In the case of `COCCSc1ccccc1C(=O)NCC1CCCO1` (stereo not shown), the “hERG current change (%, negative = inhibition) at 10uM” value is recorded as -7.6%. For the molecule `CCOC(=O)c1c(S(=O)(=O)Nc2ccc(CN3CCC(C)CC3)cc2)c(C)n(C)c1C`, the “hERG current change (%, negative = inhibition) at 10uM” value is listed as -8.7%. The figure for `Cc1sc2nc(COC(=O)c3ccc(O)cc3)[nH]c(=O)c2c1C` is 8.85%. The figure for `O=C(Nc1cccc(F)c1)C1CCN(C(=O)c2ccc(Br)cc2)CC1` is -65.1%; for `CC(C)(C)c1ccc(C(=O)CC(Sc2ccc(Cl)cc2)C(=O)O)cc1` (stereo not shown) it is -9.54%. The value for `O=C(CCCN1C(=O)/C(=C/c2ccccc2Cl)SC1=S)NNC(=O)c1ccc(Cl)cc1Cl` was 10.2%; that for `COC(=O)c1cnc(N2CCOCC2)nc1C(F)(F)F` was -1.97%. For `Cc1ccccc1C(=O)NNC(=O)CCc1ccccc1`, the “hERG current change (%, negative = inhibition) at 10uM” value amounted to 23.1%. The figure for `CC(=O)c1c(C)[nH]c(C(=O)CN2CCN(S(=O)(=O)c3ccccc3[N+](=O)[O-])CC2)c1C` is -6.62%; for `Cc1cccc(NC(=O)CSc2nccn2Cc2ccco2)c1` it is 0.772%. Turning to `O=C(Cn1c(=S)[nH]c2ccccc2c1=O)N1CCC2(CC1)OCCO2`, the “hERG current change (%, negative = inhibition) at 10uM” value is recorded as 7.19%.

Regarding `CCOC(=O)c1sc(NC(=O)C(CC)OC(=O)C(CC(C)C)NC(=O)c2ccccc2)nc1C` (stereo not shown), the “hERG current change (%, negative = inhibition) at 10uM” value turned out to be 5.98%.

`COc1ccc(CN(CC(=O)NCc2ccc3c(c2)OCO3)C(=O)c2csnn2)cc1`: the “hERG current change (%, negative = inhibition) at 10uM” value is recorded as -39.8%. On to `COc1ccc(CN2CCN(C(C)C(=O)NC(C)c3ccc(F)cc3)CC2)cc1F` (stereo not shown), for which the “hERG current change (%, negative = inhibition) at 10uM” value was -62%.

For `Cc1nn(C(C)C(=O)NCc2ccccc2Cl)c(=O)c2c1sc1ccccc12` (stereo not shown), the “hERG current change (%, negative = inhibition) at 10uM” value is recorded as -5.99%. In the case of `Cc1ccc2oc(C(=O)N3CCCCCC3)c(C)c2c1`, the “hERG current change (%, negative = inhibition) at 10uM” value is listed as -0.864%. The value for `COc1ccccc1N1CCN(S(=O)(=O)c2ccc(F)cc2)CC1` was 0.437%; that for `O=C(O)CCc1ccc(-c2ccccc2)n1CC1CCCO1` (stereo not shown) was 5.67%.

As for `O=C(CNC1CCCC1)Nc1cc(Cl)ccc1[N+](=O)[O-].O=C(O)C(=O)O`, the “hERG current change (%, negative = inhibition) at 10uM” value is listed as -9.26%. The figure for `COC(=O)c1cccc(C(=O)N2CCC(CO)(CCc3ccccc3)CC2)c1` is -13.6%. Turning to `Cc1ccc(OCC(=O)Nc2ccc(Cl)cc2C(=O)c2ccccc2)cc1`, the “hERG current change (%, negative = inhibition) at 10uM” value is on record as 8.53%. Turning to `O=C(NCc1ccccc1)c1ccc2c(c1)C(=O)N(CC1CCCO1)C2=O` (stereo not shown), the “hERG current change (%, negative = inhibition) at 10uM” value is given as -33.5%. The figure for `Cc1cc(C)c2oc(=O)cc(CN3CCCCC3)c2c1` is 21.1%; for `CCCCCn1c(N)c(C(=O)NCCN2CCOCC2)c2nc3ccccc3nc21` it is -17.1%; for `Fc1ccc(Nc2nc(Oc3ccc4c(c3)OCO4)nc(N3CCOCC3)n2)c(F)c1` it is 25.9%.

For `CCCNC(=O)/C(C#N)=C1\N=C(NC(=O)c2ccco2)c2ccccc21`, the “hERG current change (%, negative = inhibition) at 10uM” value was -44.6%. With `CCNc1nc2c(c(=O)[nH]c(=O)n2C)n1Cc1ccc(F)cc1`, the “hERG current change (%, negative = inhibition) at 10uM” value is given as -2.72%. Regarding `CC(=O)C1=C(C)Nc2ncnn2C1c1cccc(OCc2ccccc2)c1` (stereo not shown), the “hERG current change (%, negative = inhibition) at 10uM” value is reported as 1.29%. The figure for `COc1ccccc1C(=O)COC(=O)Cc1c[nH]c2ccccc12` is -27.1%. The value for `COc1cc(/C=C/C(=O)OC(C)C(=O)NC2CCCCC2C)cc(Cl)c1OC` (stereo not shown) was 13.8%; that for `CC(=O)N1[C@H](Cc2ccccc2)C=C[C@]1(C)C(=O)NCc1ccc(C)o1` was 5%; that for `O=C(COC(=O)c1ccc(Br)cc1)NCCc1ccccc1` was 8.99%. The figure for `COCCN(C(=O)COC(=O)C1(C)CC1(Cl)Cl)c1c(N)n(Cc2ccccc2)c(=O)[nH]c1=O` (stereo not shown) is 24.9%; for `COc1ccc(NC(=O)CSc2nnc3n2CCCCC3)cc1S(=O)(=O)N1CCOCC1` it is -8.46%; for `CN(C)c1ccc(/C=N/N(CCC(=O)NC(C)(C)C)C2=NS(=O)(=O)c3ccccc32)cc1` it is 16.5%.

With `COC(CN(C(=O)CCl)C(C(=O)NC1CCCCC1)c1ccc(C)cc1)OC` (stereo not shown), the “hERG current change (%, negative = inhibition) at 10uM” value was -3.26%. As to `O=C(c1ccncc1)N1CCN(c2ccc(F)cc2)CC1`, the “hERG current change (%, negative = inhibition) at 10uM” value is -7.77%. With `Cn1c(=O)c2[nH]c(Nc3ccccc3)nc2n(C)c1=O`, the “hERG current change (%, negative = inhibition) at 10uM” value is on record as -12.1%. The value for `Cc1ccc(S(=O)(=O)N(CC(=O)NCc2ccco2)C2CCCCC2)cc1` was -24.4%; that for `CC(C)OCC(O)CN1CCC(Cc2ccccc2)CC1.Cl` (stereo not shown) was -56.9%. In the case of `Cc1nc2ccc(Nc3nc4cc(S(=O)(=O)N5CCOCC5)ccc4o3)cc2s1`, the “hERG current change (%, negative = inhibition) at 10uM” value came to 3.42%. Turning to `COC(=O)c1ccc(NC(=O)CN2C(=O)CC(C)S(=O)(=O)c3ccccc32)cc1` (stereo not shown), the “hERG current change (%, negative = inhibition) at 10uM” value is given as 5.54%. With `Cc1cc(Cl)ccc1NC(=S)NCCCN1CCCC1=O`, the “hERG current change (%, negative = inhibition) at 10uM” value stood at 7.99%. Consider `Cc1ccc(S(=O)(=O)c2ccc(Cl)cc2)cc1S(=O)(=O)NC(C)C(=O)O` (stereo not shown), for which the “hERG current change (%, negative = inhibition) at 10uM” value is 14.7%. As to `COc1ccc(OC)c(S(=O)(=O)NCCO)c1`, the “hERG current change (%, negative = inhibition) at 10uM” value came to 8.08%.

With `NC(=O)CSc1ncc(-c2ccc([N+](=O)[O-])cc2)[nH]1`, the “hERG current change (%, negative = inhibition) at 10uM” value is reported as -14.6%. Consider `O=C1CCCCC1C(O)c1ccc(Cl)cc1` (stereo not shown), for which the “hERG current change (%, negative = inhibition) at 10uM” value is listed as 2.85%. The figure for `CC(C)N(C(=O)Cn1cc(S(=O)(=O)CC(=O)NCc2ccccc2)c2ccccc21)C(C)C` is -22.4%; for `CCOC(=O)Cn1nc(/C=C/c2ccccc2)ccc1=O` it is -8.37%. The figure for `O=C(NC(=S)Nc1ccc(Cl)cn1)C(c1ccccc1)c1ccccc1` is -4.15%. Consider `COc1ccc(S(=O)(=O)N2CCCCC2)cc1NC(=O)c1ccc(N2CCCC2=O)cc1`, for which the “hERG current change (%, negative = inhibition) at 10uM” value was -18.4%. On to `CSc1nc2c(cnn2-c2ccc(C)c(C)c2)c(=O)[nH]1`, for which the “hERG current change (%, negative = inhibition) at 10uM” value is 14.1%. Turning to `Brc1ccc(-c2noc(-c3ccccc3)n2)o1`, the “hERG current change (%, negative = inhibition) at 10uM” value is 10.9%.

On to `COc1cc(/C=N/n2nnnc2N)cc(OC)c1OC`, for which the “hERG current change (%, negative = inhibition) at 10uM” value was -0.774%.

For the molecule `COc1ccc(CCNc2ncnc3c2c(C)c(C)n3CCCN(C)C)cc1OC`, the “hERG current change (%, negative = inhibition) at 10uM” value is -39.9%. The figure for `COc1cccc(N2CCN(c3ccc4nnc(CCC(=O)Nc5ccccn5)n4n3)CC2)c1` is -42.2%; for `O=C(c1ccco1)N1CCN(C(=S)Nc2cccc([N+](=O)[O-])c2)CC1` it is -63.3%; for `CCN(CC)C(=O)CSc1nnc(-c2cc3ccccc3cc2O)n1CC` it is -29.8%.

As for `COC(=O)c1c(C)oc2ccc(NS(=O)(=O)c3cc(OC)ccc3OC)cc12`, the “hERG current change (%, negative = inhibition) at 10uM” value stood at 19.5%.

As for `CCc1ccc(C(=O)CCC(=O)Nc2ccc(OC)c(S(=O)(=O)N3CCCCC3)c2)cc1`, the “hERG current change (%, negative = inhibition) at 10uM” value is -20.7%. On to `C/C(=N\NC(=O)c1cc(-c2cccs2)nc2ccccc12)c1ccccn1`, for which the “hERG current change (%, negative = inhibition) at 10uM” value is 12.1%. On to `O=C(Cc1ccccc1)Nc1nnc(-c2ccco2)o1`, for which the “hERG current change (%, negative = inhibition) at 10uM” value was found to be 10.7%. For `Cc1ccc(NC(=O)CNC(=O)COc2ccccc2)nc1`, the “hERG current change (%, negative = inhibition) at 10uM” value worked out at 4.91%. With `C#C[C@@]1(O)CCC2C3CCC4=C/C(=N/OCC(=O)NC(CCC(N)=O)C(=O)O)CC[C@]4(C)C3CC[C@@]21C` (stereo partly shown), the “hERG current change (%, negative = inhibition) at 10uM” value was found to be 18.2%. The value for `CCN(CC)CP(=O)(c1ccccc1)c1ccccc1` was 4.9%; that for `CCN(Cc1cc2cc(C)ccc2[nH]c1=O)C(=O)c1cccc(OC)c1` was -22.3%; that for `Cc1ccccc1C(=O)NCCSc1ccccc1` was -6.53%. For the molecule `CC(=O)/C(=N\Nc1ccccc1)Oc1ccc([N+](=O)[O-])cc1`, the “hERG current change (%, negative = inhibition) at 10uM” value is -8.01%. The figure for `Cc1c(C(=O)N2CCOCC2)[nH]c2ccc(OCc3ccccc3)cc12` is -13.2%; for `CCOc1ccc(NS(=O)(=O)c2ccc(C(=O)NCC(c3ccco3)N3CCCC3)cc2)cc1` (stereo not shown) it is -23.1%. The value for `O=C(CSc1cn[nH]n1)Nc1cccc(C(=O)O)c1` was 0.934%; that for `O=C(O)c1cccc(Cn2cccn2)c1` was 8.58%; that for `COCCNC(=O)Nc1ccc2nc(C)sc2c1` was 4.08%.
